The list shows a part of the results. No stated cut-off is given here; in the data, active = 3.2 or more and inactive = the rest. Only a few entries rise above the background.
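Further: displayed peptides selected on beads carrying the immobilized SH2 domain, with library peptides lacking any tyrosine serving as negative controls.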

In the first experiment the target is SHP2 C-SH2 domain E139D. Description: enrichment score (SH2-bound / input frequency) (ratio); bacterial display of known human phosphotyrosine sites (pTyr-Var adds point mutants) read by sequencing; higher = stronger binding; tyrosines were phosphorylated by kinases first. Particulars: peptide library: pTyr-Var.
For DAPVVYLGSFR [PRAG1_Y132], the enrichment score is inactive: 0.638.

Consider LVQAEYWHDPI [PPT1_Y185], for which the enrichment score was inactive: 1.29.

As for HITQVYGFFDE [PPP2CA_Y127_Q122H_YF], the enrichment score is inactive: 2.24.

Regarding QITQVYGFYDE [PPP2CA_Y127], the enrichment score was inactive: 1.04.

Turning to LVQAEYWHDRI [PPT1_Y185_P189R], the enrichment score is inactive: 0.967.

Take GSIQQYIYKQE [PRG4_Y1271]: the enrichment score is inactive: 0.829.

In the case of FSAPNYCFRCG [PPP2CA_Y265_YF], the enrichment score was inactive: 1.67.

As to QITQVYGFFHE [PPP2CA_Y127_D131H_YF], the enrichment score was inactive: 1.3.

For the molecule DEDYLYREELA [POR_Y575], the enrichment score is inactive: 0.772.

Take EDGFAYVPLKD [PRIM2_Y208]: the enrichment score is inactive: 0.593.

Take QITQVYGFYHE [PPP2CA_Y127_D131H]: the enrichment score is inactive: 1.62.

As to NVTGHYIPPFH [PPA2_Y59_S61P], the enrichment score was inactive: 1.11.

Take QISQDYGVLLE [PRDX3_Y172_R170Q]: the enrichment score is inactive: 0.786.

With LFMGDYVGRGF [PPP2CA_Y86_D88G_YF], the enrichment score was inactive: 1.2.

On to QSHKVYVQHLL [POR_Y604], for which the enrichment score is inactive: 0.825.

For the molecule SQPASYQRRFL [PPIG_Y320_L324F], the enrichment score is inactive: 0.207.

As to DEDFLYREELA [POR_Y575_YF], the enrichment score is inactive: 0.585.

Take LFMGDYVGRGY [PPP2CA_Y86_D88G]: the enrichment score is inactive: 1.03.

For the molecule KCCCIYEKPRA [PPP1R11_Y64], the enrichment score is inactive: 1.06.

The next experiment addresses SHP2 C-SH2 domain wild-type. The description is as above. The following applies: peptide library: pTyr-Var.
As to DAPVVYLGSFR [PRAG1_Y132], the enrichment score is inactive: 1.31.

As to LVQAEYWHDPI [PPT1_Y185], the enrichment score was inactive: 1.13.

HITQVYGFFDE [PPP2CA_Y127_Q122H_YF]: the enrichment score is inactive: 1.56.

Regarding QITQVYGFYDE [PPP2CA_Y127], the enrichment score was inactive: 1.01.

With LVQAEYWHDRI [PPT1_Y185_P189R], the enrichment score is inactive: 1.14.

Regarding GSIQQYIYKQE [PRG4_Y1271], the enrichment score is inactive: 0.905.

In the case of FSAPNYCFRCG [PPP2CA_Y265_YF], the enrichment score is inactive: 1.71.

Consider QITQVYGFFHE [PPP2CA_Y127_D131H_YF], for which the enrichment score is inactive: 1.36.

Consider DEDYLYREELA [POR_Y575], for which the enrichment score is inactive: 0.707.

For the molecule EDGFAYVPLKD [PRIM2_Y208], the enrichment score was inactive: 0.625.

QITQVYGFYHE [PPP2CA_Y127_D131H]: the enrichment score was inactive: 1.18.

Consider NVTGHYIPPFH [PPA2_Y59_S61P], for which the enrichment score was inactive: 0.801.

With QISQDYGVLLE [PRDX3_Y172_R170Q], the enrichment score was inactive: 0.682.

As to LFMGDYVGRGF [PPP2CA_Y86_D88G_YF], the enrichment score is inactive: 1.04.

Regarding QSHKVYVQHLL [POR_Y604], the enrichment score is inactive: 0.703.

For the molecule SQPASYQRRFL [PPIG_Y320_L324F], the enrichment score was inactive: 0.198.

Consider DEDFLYREELA [POR_Y575_YF], for which the enrichment score is inactive: 0.913.

LFMGDYVGRGY [PPP2CA_Y86_D88G]: the enrichment score was inactive: 1.04.

KCCCIYEKPRA [PPP1R11_Y64]: the enrichment score was inactive: 1.28.

The target of the next experiment is SHP2 N-SH2 domain L43F. The description is as above. The following applies: peptide library: pTyr-Var.
Turning to DAPVVYLGSFR [PRAG1_Y132], the enrichment score is inactive: 0.766.

As for LVQAEYWHDPI [PPT1_Y185], the enrichment score was inactive: 0.92.

As for HITQVYGFFDE [PPP2CA_Y127_Q122H_YF], the enrichment score is inactive: 2.24.

Turning to QITQVYGFYDE [PPP2CA_Y127], the enrichment score was inactive: 1.04.

As for LVQAEYWHDRI [PPT1_Y185_P189R], the enrichment score was inactive: 1.08.

Take GSIQQYIYKQE [PRG4_Y1271]: the enrichment score was inactive: 0.839.

As for FSAPNYCFRCG [PPP2CA_Y265_YF], the enrichment score is inactive: 1.64.

For the molecule QITQVYGFFHE [PPP2CA_Y127_D131H_YF], the enrichment score was inactive: 1.72.

Take DEDYLYREELA [POR_Y575]: the enrichment score was inactive: 0.713.

Turning to EDGFAYVPLKD [PRIM2_Y208], the enrichment score is inactive: 0.497.

For QITQVYGFYHE [PPP2CA_Y127_D131H], the enrichment score is inactive: 1.34.

In the case of NVTGHYIPPFH [PPA2_Y59_S61P], the enrichment score was inactive: 0.959.

With QISQDYGVLLE [PRDX3_Y172_R170Q], the enrichment score is inactive: 0.767.

For LFMGDYVGRGF [PPP2CA_Y86_D88G_YF], the enrichment score is inactive: 1.13.

As to QSHKVYVQHLL [POR_Y604], the enrichment score is inactive: 1.02.

With SQPASYQRRFL [PPIG_Y320_L324F], the enrichment score was inactive: 0.233.

In the case of DEDFLYREELA [POR_Y575_YF], the enrichment score was inactive: 0.644.

With LFMGDYVGRGY [PPP2CA_Y86_D88G], the enrichment score was inactive: 1.08.

For KCCCIYEKPRA [PPP1R11_Y64], the enrichment score was inactive: 0.997.

A further experiment concerns the target SHP2 N-SH2 domain T42A. Described as above. The following applies: peptide library: pTyr-Var.
In the case of DAPVVYLGSFR [PRAG1_Y132], the enrichment score is inactive: 1.77.

Regarding LVQAEYWHDPI [PPT1_Y185], the enrichment score is inactive: 1.02.

For HITQVYGFFDE [PPP2CA_Y127_Q122H_YF], the enrichment score is inactive: 2.07.

Take QITQVYGFYDE [PPP2CA_Y127]: the enrichment score is inactive: 0.812.

For LVQAEYWHDRI [PPT1_Y185_P189R], the enrichment score was inactive: 1.04.

GSIQQYIYKQE [PRG4_Y1271]: the enrichment score is inactive: 0.566.

Consider FSAPNYCFRCG [PPP2CA_Y265_YF], for which the enrichment score was inactive: 1.66.

In the case of QITQVYGFFHE [PPP2CA_Y127_D131H_YF], the enrichment score was inactive: 1.26.

As for DEDYLYREELA [POR_Y575], the enrichment score was inactive: 0.595.

As to EDGFAYVPLKD [PRIM2_Y208], the enrichment score was inactive: 0.478.

For QITQVYGFYHE [PPP2CA_Y127_D131H], the enrichment score is inactive: 1.56.

For NVTGHYIPPFH [PPA2_Y59_S61P], the enrichment score is inactive: 0.947.

For QISQDYGVLLE [PRDX3_Y172_R170Q], the enrichment score was inactive: 0.719.

In the case of LFMGDYVGRGF [PPP2CA_Y86_D88G_YF], the enrichment score is inactive: 1.09.

Regarding QSHKVYVQHLL [POR_Y604], the enrichment score was inactive: 0.95.

Consider SQPASYQRRFL [PPIG_Y320_L324F], for which the enrichment score is inactive: 0.226.

In the case of DEDFLYREELA [POR_Y575_YF], the enrichment score is inactive: 0.548.

Take LFMGDYVGRGY [PPP2CA_Y86_D88G]: the enrichment score is inactive: 0.873.

Consider KCCCIYEKPRA [PPP1R11_Y64], for which the enrichment score was inactive: 1.11.

Another experiment concerns the target SHP2 N-SH2 domain T52S. Described as above. The following applies: peptide library: pTyr-Var.
Turning to DAPVVYLGSFR [PRAG1_Y132], the enrichment score was inactive: 0.639.

With LVQAEYWHDPI [PPT1_Y185], the enrichment score was inactive: 1.32.

For the molecule HITQVYGFFDE [PPP2CA_Y127_Q122H_YF], the enrichment score was inactive: 1.95.

For the molecule QITQVYGFYDE [PPP2CA_Y127], the enrichment score is inactive: 0.759.

As to LVQAEYWHDRI [PPT1_Y185_P189R], the enrichment score was inactive: 0.783.

GSIQQYIYKQE [PRG4_Y1271]: the enrichment score is inactive: 0.821.

Turning to FSAPNYCFRCG [PPP2CA_Y265_YF], the enrichment score is inactive: 1.41.

In the case of QITQVYGFFHE [PPP2CA_Y127_D131H_YF], the enrichment score is inactive: 1.62.

For the molecule DEDYLYREELA [POR_Y575], the enrichment score was inactive: 0.818.

Regarding EDGFAYVPLKD [PRIM2_Y208], the enrichment score is inactive: 0.474.

Turning to QITQVYGFYHE [PPP2CA_Y127_D131H], the enrichment score is inactive: 1.21.

For the molecule NVTGHYIPPFH [PPA2_Y59_S61P], the enrichment score is inactive: 0.863.

For the molecule QISQDYGVLLE [PRDX3_Y172_R170Q], the enrichment score was inactive: 0.962.

Consider LFMGDYVGRGF [PPP2CA_Y86_D88G_YF], for which the enrichment score is inactive: 1.1.

For the molecule QSHKVYVQHLL [POR_Y604], the enrichment score is inactive: 0.744.

For SQPASYQRRFL [PPIG_Y320_L324F], the enrichment score was inactive: 0.236.

In the case of DEDFLYREELA [POR_Y575_YF], the enrichment score was inactive: 0.632.

LFMGDYVGRGY [PPP2CA_Y86_D88G]: the enrichment score is inactive: 0.671.

With KCCCIYEKPRA [PPP1R11_Y64], the enrichment score was inactive: 0.865.

The next experiment has as its target SHP2 N-SH2 domain wild-type. The experiment is described as above. Particulars: peptide library: pTyr-Var.
As for DAPVVYLGSFR [PRAG1_Y132], the enrichment score was inactive: 0.718.

Consider LVQAEYWHDPI [PPT1_Y185], for which the enrichment score is inactive: 1.17.

On to HITQVYGFFDE [PPP2CA_Y127_Q122H_YF], for which the enrichment score is inactive: 1.65.

For QITQVYGFYDE [PPP2CA_Y127], the enrichment score was inactive: 1.31.

Turning to LVQAEYWHDRI [PPT1_Y185_P189R], the enrichment score was inactive: 0.963.

GSIQQYIYKQE [PRG4_Y1271]: the enrichment score was inactive: 0.439.

With FSAPNYCFRCG [PPP2CA_Y265_YF], the enrichment score was inactive: 1.55.

QITQVYGFFHE [PPP2CA_Y127_D131H_YF]: the enrichment score was inactive: 1.65.

Turning to DEDYLYREELA [POR_Y575], the enrichment score was inactive: 0.855.

As to EDGFAYVPLKD [PRIM2_Y208], the enrichment score was inactive: 0.467.

Regarding QITQVYGFYHE [PPP2CA_Y127_D131H], the enrichment score was inactive: 1.21.

For NVTGHYIPPFH [PPA2_Y59_S61P], the enrichment score was inactive: 1.25.

For QISQDYGVLLE [PRDX3_Y172_R170Q], the enrichment score was inactive: 0.843.

As to LFMGDYVGRGF [PPP2CA_Y86_D88G_YF], the enrichment score is inactive: 1.09.

Regarding QSHKVYVQHLL [POR_Y604], the enrichment score is inactive: 0.933.

As to SQPASYQRRFL [PPIG_Y320_L324F], the enrichment score is inactive: 0.18.

Consider DEDFLYREELA [POR_Y575_YF], for which the enrichment score was inactive: 0.635.

Take LFMGDYVGRGY [PPP2CA_Y86_D88G]: the enrichment score is inactive: 0.946.

As to KCCCIYEKPRA [PPP1R11_Y64], the enrichment score is inactive: 1.3.

These data come from the supplement of paper PMC10369915.
